Source: PMC5700166
The list shows a part of the results, in another mix than the full data. The list includes weakly bound sequences.

Experiments:
Test in all cases: protein-binding microarray (PBM)
Settings in all cases: PBM: ~300 nM protein, 6 mM HEPES pH 7.8, 80 mM KCl, 0.5 mM EDTA, 0.5 mM EGTA, 6% glycerol, 35 ng/ul poly-dIdC, 1% milk, 1 h, room temperature; Ap Aiptasia and Nv Nematostella (sea anemones) / Co Capsaspora / Aq Amphimedon (sponge) / Dm Drosophila / Hu human; RHD is the Rel homology domain; high values mean tight binding; most listed sequences are background and not binding sites; double strand, one strand shown
GST-Ap-NF-kB RHD = target: T1, GST-Ap-NF-kB RHD (UniProt A0A913YAJ5)
T1 sequence: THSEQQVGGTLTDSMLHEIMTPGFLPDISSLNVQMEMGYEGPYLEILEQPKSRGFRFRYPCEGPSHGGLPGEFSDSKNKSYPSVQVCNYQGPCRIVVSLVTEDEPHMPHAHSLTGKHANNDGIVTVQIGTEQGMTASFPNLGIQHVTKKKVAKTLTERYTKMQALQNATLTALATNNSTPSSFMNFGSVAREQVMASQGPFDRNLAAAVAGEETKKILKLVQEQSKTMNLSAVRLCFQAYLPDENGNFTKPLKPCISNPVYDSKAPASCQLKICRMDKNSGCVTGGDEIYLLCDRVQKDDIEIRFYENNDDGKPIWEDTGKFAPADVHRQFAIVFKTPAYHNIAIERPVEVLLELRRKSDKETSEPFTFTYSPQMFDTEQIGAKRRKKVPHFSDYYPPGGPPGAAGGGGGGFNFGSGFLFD

[1] = target: T2, GST-Nv-NF-kB (Cys allele) (UniProt E5G601)
T2 sequence: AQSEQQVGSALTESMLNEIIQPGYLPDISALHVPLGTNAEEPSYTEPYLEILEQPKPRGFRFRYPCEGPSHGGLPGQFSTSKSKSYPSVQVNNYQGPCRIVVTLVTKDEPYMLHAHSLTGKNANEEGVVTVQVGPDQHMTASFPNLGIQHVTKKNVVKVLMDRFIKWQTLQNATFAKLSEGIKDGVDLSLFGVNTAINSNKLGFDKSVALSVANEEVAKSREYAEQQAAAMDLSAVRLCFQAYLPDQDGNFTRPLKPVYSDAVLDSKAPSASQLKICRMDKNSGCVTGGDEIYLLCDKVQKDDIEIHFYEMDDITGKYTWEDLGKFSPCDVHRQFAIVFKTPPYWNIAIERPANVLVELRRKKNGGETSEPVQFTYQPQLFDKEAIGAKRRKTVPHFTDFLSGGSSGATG

GST-Co-NF-kB = target: T3, GST-Co-NF-kB (UniProt F1ARL5)
T3 sequence: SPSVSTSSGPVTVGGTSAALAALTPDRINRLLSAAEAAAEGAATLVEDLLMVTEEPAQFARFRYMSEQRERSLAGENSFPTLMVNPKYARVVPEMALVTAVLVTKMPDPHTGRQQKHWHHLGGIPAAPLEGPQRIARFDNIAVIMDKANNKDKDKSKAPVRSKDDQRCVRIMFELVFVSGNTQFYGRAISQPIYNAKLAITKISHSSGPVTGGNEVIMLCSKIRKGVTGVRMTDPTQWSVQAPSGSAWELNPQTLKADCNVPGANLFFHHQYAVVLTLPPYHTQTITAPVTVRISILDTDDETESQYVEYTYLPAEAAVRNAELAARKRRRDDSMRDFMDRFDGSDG

GST-Dm-Relish = target: T4, GST-Dm-Relish (UniProt Q94527)
T4 sequence: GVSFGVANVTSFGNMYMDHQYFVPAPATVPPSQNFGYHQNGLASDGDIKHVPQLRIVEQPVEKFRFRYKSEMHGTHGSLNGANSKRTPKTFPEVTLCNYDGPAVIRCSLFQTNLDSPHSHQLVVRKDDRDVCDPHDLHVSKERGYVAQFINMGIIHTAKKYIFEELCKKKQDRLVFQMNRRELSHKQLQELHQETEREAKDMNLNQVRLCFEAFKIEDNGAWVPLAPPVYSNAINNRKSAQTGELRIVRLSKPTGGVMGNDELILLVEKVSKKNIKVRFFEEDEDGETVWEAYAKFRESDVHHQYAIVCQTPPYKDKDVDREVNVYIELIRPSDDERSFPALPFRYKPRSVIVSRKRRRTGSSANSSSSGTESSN

GST-Aq-NF-kB = target: T5, GST-Aq-NF-kB (UniProt A9Y5G7)
T5 sequence: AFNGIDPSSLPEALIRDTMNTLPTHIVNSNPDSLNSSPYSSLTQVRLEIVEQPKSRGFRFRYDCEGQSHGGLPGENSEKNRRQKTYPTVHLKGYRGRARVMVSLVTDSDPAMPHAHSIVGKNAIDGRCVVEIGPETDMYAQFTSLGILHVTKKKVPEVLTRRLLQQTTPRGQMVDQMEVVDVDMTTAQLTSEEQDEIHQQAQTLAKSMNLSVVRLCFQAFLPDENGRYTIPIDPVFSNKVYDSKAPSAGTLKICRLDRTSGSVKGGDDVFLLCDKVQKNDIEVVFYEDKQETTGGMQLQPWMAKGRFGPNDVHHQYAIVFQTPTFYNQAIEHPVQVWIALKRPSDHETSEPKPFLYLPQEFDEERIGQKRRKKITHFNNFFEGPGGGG

Sequence | binding signal (GST-Ap-NF-kB RHD) | binding signal [1] | binding signal (GST-Co-NF-kB) | binding signal (GST-Dm-Relish) | binding signal (GST-Aq-NF-kB)
CCGATTAACATCACACTGAACTTTGATGTTAATCGGGTCTTGATTCGCTTGACGCTGCTG | -0.00821 z-score | -0.428 z-score | 0.256 z-score | -0.222 z-score | -0.356 z-score
CCGATTAACATCAATCCGGAAAATGATGTTAATCGGGTCTTGATTCGCTTGACGCTGCTG | -0.649 z-score | 0.129 z-score | -0.795 z-score | -0.704 z-score | -0.26 z-score
CCGATTAACATCACGTGCTTTCCTGATGTTAATCGGGTCTTGATTCGCTTGACGCTGCTG | 0.279 z-score | 0.222 z-score | 0.492 z-score | 2.88 z-score | 1.36 z-score
CCGATTAACATCACCGCTCTAAGTGATGTTAATCGGGTCTTGATTCGCTTGACGCTGCTG | 0.422 z-score | 0.39 z-score | 0.225 z-score | 0.77 z-score | 0.112 z-score
CCGATTAACATCAATGAGGTTTCTGATGTTAATCGGGTCTTGATTCGCTTGACGCTGCTG | 0.0659 z-score | -0.322 z-score | -0.124 z-score | -0.473 z-score | -0.47 z-score
CCGATTAACATCAATGGACCGTTTGATGTTAATCGGGTCTTGATTCGCTTGACGCTGCTG | -0.402 z-score | 0.481 z-score | -0.551 z-score | -0.543 z-score | -0.31 z-score
CCGATTAACATCATGCAATACAATGATGTTAATCGGGTCTTGATTCGCTTGACGCTGCTG | -0.874 z-score | -0.428 z-score | -0.678 z-score | -0.414 z-score | -0.469 z-score
CCGATTAACATCAAGTGAAAGCATGATGTTAATCGGGTCTTGATTCGCTTGACGCTGCTG | -0.268 z-score | 0.026 z-score | -0.473 z-score | -0.407 z-score | -0.217 z-score
CCGATTAACATCAGACGCTATAATGATGTTAATCGGGTCTTGATTCGCTTGACGCTGCTG | -0.00202 z-score | 0.0067 z-score | -0.38 z-score | -0.2 z-score | -0.372 z-score
CCGATTAACATCAGCCTAAATACTGATGTTAATCGGGTCTTGATTCGCTTGACGCTGCTG | -0.68 z-score | -0.241 z-score | -0.14 z-score | -0.731 z-score | -0.413 z-score
CCGATTAACATCAGCAGTCTCCGTGATGTTAATCGGGTCTTGATTCGCTTGACGCTGCTG | -0.137 z-score | -0.137 z-score | -0.28 z-score | -0.308 z-score | -0.529 z-score
CCGATTAACATCACCCTCCAATTTGATGTTAATCGGGTCTTGATTCGCTTGACGCTGCTG | 0.621 z-score | 0.127 z-score | 0.765 z-score | 0.384 z-score | 0.597 z-score
CCGATTAACATCAGAATATTCCATGATGTTAATCGGGTCTTGATTCGCTTGACGCTGCTG | 0.37 z-score | -0.588 z-score | 0.0694 z-score | -0.0793 z-score | -0.0722 z-score
CCGATTAACATCACGGGCATCCTTGATGTTAATCGGGTCTTGATTCGCTTGACGCTGCTG | 0.181 z-score | -0.195 z-score | -0.548 z-score | 0.581 z-score | 0.42 z-score
CCGATTAACATCATGGTCTCATGTGATGTTAATCGGGTCTTGATTCGCTTGACGCTGCTG | -0.574 z-score | 0.0385 z-score | -0.428 z-score | 0.0801 z-score | -0.379 z-score
CCGATTAACATCACAACGCATGATGATGTTAATCGGGTCTTGATTCGCTTGACGCTGCTG | -0.371 z-score | -0.723 z-score | 0.0945 z-score | 0.204 z-score | -0.316 z-score
CCGATTAACATCATTCCGCGGTGTGATGTTAATCGGGTCTTGATTCGCTTGACGCTGCTG | 0.479 z-score | -0.467 z-score | -0.781 z-score | 0.205 z-score | -0.142 z-score
CCGATTAACATCAGCAATGTAGGTGATGTTAATCGGGTCTTGATTCGCTTGACGCTGCTG | 0.268 z-score | -0.00787 z-score | -0.118 z-score | 0.25 z-score | 0.341 z-score
CCGATTAACATCACGGCAACTCCTGATGTTAATCGGGTCTTGATTCGCTTGACGCTGCTG | 0.0614 z-score | -0.741 z-score | -0.327 z-score | -0.557 z-score | 0.297 z-score
CCGATTAACATCAATGGCGATGATGATGTTAATCGGGTCTTGATTCGCTTGACGCTGCTG | -0.311 z-score | -0.32 z-score | -0.0605 z-score | -0.249 z-score | -0.399 z-score
CCGATTAACATCAACAGACACAGTGATGTTAATCGGGTCTTGATTCGCTTGACGCTGCTG | 0.187 z-score | 0.491 z-score | 0.478 z-score | 0.453 z-score | -0.35 z-score
CCGATTAACATCACGACTTCTATTGATGTTAATCGGGTCTTGATTCGCTTGACGCTGCTG | -0.248 z-score | -0.294 z-score | 0.352 z-score | -0.581 z-score | -0.451 z-score
CCGATTAACATCATGGGCTCCGATGATGTTAATCGGGTCTTGATTCGCTTGACGCTGCTG | -0.528 z-score | -0.282 z-score | -1 z-score | -0.19 z-score | -0.414 z-score
CCGATTAACATCAAGGCGTATCGTGATGTTAATCGGGTCTTGATTCGCTTGACGCTGCTG | -0.203 z-score | -0.164 z-score | 0.00464 z-score | -0.399 z-score | -0.0905 z-score
CCGATTAACATCATAATTGAGCATGATGTTAATCGGGTCTTGATTCGCTTGACGCTGCTG | -0.201 z-score | -0.261 z-score | 0.116 z-score | -0.446 z-score | -0.249 z-score
CCGATTAACATCATTGATGGAACTGATGTTAATCGGGTCTTGATTCGCTTGACGCTGCTG | -0.0588 z-score | -0.299 z-score | -0.945 z-score | -0.65 z-score | -0.0548 z-score
CCGATTAACATCAAAAAATCCCGTGATGTTAATCGGGTCTTGATTCGCTTGACGCTGCTG | 5.57 z-score | 6.22 z-score | 2.99 z-score | 8.31 z-score | 6.71 z-score
CCGATTAACATCACTTCTGCTGCTGATGTTAATCGGGTCTTGATTCGCTTGACGCTGCTG | 0.3 z-score | -0.438 z-score | 0.435 z-score | -0.481 z-score | -0.31 z-score
